# In the supplement of paper PMC6828730:
# This is one part of the list. Many values rest on one well or one pass, so single values are uncertain.
# Key:
# [1] = tested on: hiPSC-derived cardiomyocytes; experiment: time to death of most cells in well after compound addition (days); higher = less cardiotoxic; details: screen: 1; 10 µM
# [2] = tested on: hiPSC-derived cardiomyocytes; experiment: time to death of most cells in well after compound addition (days); higher = less cardiotoxic; extreme values may be limits of the assay; details: 10 µM
Compound,time to death of most cells in well [1],time to death of most cells in well ([2]; screen: 2),time to death of most cells in well ([2]; screen: 3),time to death of most cells in well ([2]; screen: 4)
"Cc1cc(Nc2cc(N3CCN(C)CC3)nc(Sc3ccc(NC(=O)C4CC4)cc3)n2)n[nH]1 [Tozasertib (VX-680, MK-0457)]",> 7,> 7,> 7,> 7
O=C(Nc1ccccc1C(=O)NC1CCCCNC1=O)c1cc2ccccc2s1 (centres undefined),> 7,> 7,> 7,> 7
C=CC(=O)Nc1cccc(Oc2nc(Nc3ccc(N4CCN(C)CC4)cc3)ncc2Cl)c1,4,2,4.5,4
CC(C)(O)CC(=O)NCCn1ccc2ncnc(Nc3ccc(Oc4cccc(C(F)(F)F)c4)c(Cl)c3)c21,> 7,5,> 7,> 7
O=c1[nH]c2ccccc2n1C1CCN(Cc2ccc(-c3[nH]c4cc5ncnc5cc4nc3-c3ccccc3)cc2)CC1,> 7,4,> 7,> 7
CN1CCC(COc2cnc(-c3cccc(Cn4nc(-c5cccc(C#N)c5)ccc4=O)c3)nc2)CC1,2.5,5.5,> 7,> 7
COc1ccc(-c2ccc3c(N4CCOCC4)nc(N4C[C@@H](C)O[C@@H](C)C4)nc3n2)cc1CO,3,3,> 7,> 7
Cc1ccc(F)c(NC(=O)Nc2ccc(-c3cccc4[nH]nc(N)c34)cc2)c1 [Linifanib (ABT-869)],> 7,> 7,> 7,> 7
COc1ccc(N(C(=O)Oc2c(C)cccc2C)c2ccnc(Nc3ccc(N4CCN(C)CC4)cc3)n2)c(OC)c1,> 7,> 7,> 7,> 7
O=C(NC(NC(=S)Nc1ccc(F)c([N+](=O)[O-])c1)C(Cl)(Cl)Cl)C(c1ccccc1)c1ccccc1 (centres undefined),1,1.5,3.5,> 7
CCOc1cc(N2CCC(O)CC2)ccc1Nc1ncc2c(n1)N(C)c1ccccc1C(=O)N2C,6.5,3.5,> 7,> 7
Cc1c[nH]c2nc(Nc3ccc(N4CCN(C)CC4)c(F)c3)nc(-c3cccc(CC#N)c3)c12,> 7,3,4,3
NC(=O)Nc1sc(-c2ccc(F)cc2)cc1C(N)=O,6,> 7,> 7,> 7
Cc1ccc(NC(=O)c2ccc(CN3CCN(C)CC3)cc2)cc1Nc1nc(-c2cccnc2)cs1 [Masitinib (AB1010)],> 7,> 7,> 7,6
O=C1NC(=O)[C@@H](c2cn3c4c(cccc24)CCC3)[C@@H]1c1c[nH]c2ccccc12 [Tivantinib (ARQ 197)],2,> 7,> 7,> 7
Cc1ccccc1-n1c(Cn2ncc3c(N)ncnc32)nc2cccc(C)c2c1=O,> 7,> 7,> 7,> 7
